Test results published in patent US20150023989A1, “NEW ANTIBODY DRUG CONJUGATES (ADCS) AND THE USE THEREOF” (SEATTLE GENETICS, INC., priority 2011, published 2015).
Substitutions are numbered along the chain they refer to.

B1: Example 26 (immunoconjugate of M048-D01-hIgG1-b, coupled to lysine side chains) (antibody)
heavy: EVQLLESGGGLVQPGGSLRLSCAASGFTFSSYAMSWVRQAPGKGLEWVSAISGSGTSTYYADSVKGRFTISRDNSKNTLYLQMNSLRAEDTAVYYCARVRYNWNHGDWFDPWGQGTLVTVSS[no letters for human IgG1 constant region]
light: QSVLTQPPSASGTPGQRVTISCSGSSSNIGNNYVSWYQQLPGTAPKLLIYENYNRPAGVPDRFSGSKSGTSASLAISGLRSEDEADYYCSSWDDSLNYWVFGGGTKLTVLGQPKAAPSVTLFPPSSEELQANKATLVCLISDFYPGAVTVAWKADSSPVKAGVETTTPSKQSNNKYAASSYLSLTPEQWKSHRSYSCQVTHEGSTVEKTVAPTECS
modifications: here or on the partner: auristatin linker-toxophore on side chain NH of lysine residues, positions not stated (drug/mAb ratio 3.7 for the antibody)
B2: Example 27 (immunoconjugate of M048-D01-hIgG1-b, coupled to cysteine side chains) (antibody)
heavy: B1 heavy
light: B1 light
modifications: here or on the partner: auristatin linker-toxophore on sulphur atoms of cysteine residues of the partially reduced antibody, positions not stated (drug/mAb ratio 4.2 for the antibody)
B3: Example 28 (immunoconjugate of M048-D01-hIgG1-b, coupled to lysine side chains) (antibody)
heavy: B1 heavy
light: B1 light
modifications: here or on the partner: auristatin linker-toxophore on side chain NH of lysine residues, positions not stated (drug/mAb ratio 3.7 for the antibody)
B4: Example 29 (immunoconjugate of M048-D01-hIgG1-b, coupled to lysine side chains) (antibody)
heavy: B1 heavy
light: B1 light
modifications: here or on the partner: auristatin linker-toxophore on side chain NH of lysine residues, positions not stated (drug/mAb ratio 1.3 for the antibody)
B5: Example 30 (immunoconjugate of M048-D01-hIgG1-b, coupled to lysine side chains) (antibody)
heavy: B1 heavy
light: B1 light
modifications: here or on the partner: auristatin linker-toxophore on side chain NH of lysine residues, positions not stated (drug/mAb ratio 3.9 for the antibody)
B6: Example 3 (immunoconjugate of M048-D01-hIgG1, coupled to cysteine side chains) (antibody)
heavy: B1 heavy with E1Q, Q3E
light: B1 light
modifications: here or on the partner: auristatin linker-toxophore on sulphur atoms of cysteine residues of the partially reduced antibody, positions not stated (drug/mAb ratio 3.7 for the antibody)
B7: Example 31 (immunoconjugate of M048-D01-hIgG1-b, coupled to lysine side chains) (antibody)
heavy: B1 heavy
light: B1 light
modifications: here or on the partner: auristatin linker-toxophore on side chain NH of lysine residues, positions not stated (drug/mAb ratio 1.7 for the antibody)
B8: Example 33 (immunoconjugate of M048-D01-hIgG1-b, coupled to lysine side chains) (antibody)
heavy: B1 heavy
light: B1 light
modifications: here or on the partner: auristatin linker-toxophore on side chain NH of lysine residues, positions not stated (drug/mAb ratio 5.5 for the antibody)
B9: Example 34 (immunoconjugate of M048-D01-hIgG1-b, coupled to lysine side chains) (antibody)
heavy: B1 heavy
light: B1 light
modifications: here or on the partner: auristatin linker-toxophore on side chain NH of lysine residues, positions not stated (drug/mAb ratio 0.5 for the antibody)
B10: Example 35 (immunoconjugate of M048-D01-hIgG1-b, coupled to lysine side chains) (antibody)
heavy: B1 heavy
light: B1 light
modifications: here or on the partner: auristatin linker-toxophore on side chain NH of lysine residues, positions not stated (drug/mAb ratio 3.4 for the antibody)
B11: Example 4 (immunoconjugate of M048-D01-hIgG1, coupled to lysine side chains) (antibody)
heavy: B1 heavy with E1Q, Q3E
light: B1 light
modifications: here or on the partner: auristatin linker-toxophore on side chain NH of lysine residues, positions not stated (drug/mAb ratio 3.7 for the antibody)

Biological target: FGFR2 on the cell surface of human tumour cell lines (human), P21802
Assay: cell-based or functional assay

| Binder | NCI-H716, IC50, 72 hr (growth inhibition) [nM] | SNU-16, IC50, 72 hr (growth inhibition) [nM] | SUM52-PE, IC50, 72 hr (growth inhibition) [nM] | KatoIII, IC50, 72 hr (growth inhibition) [nM] | MFM-223, IC50, 72 hr (growth inhibition) [nM] |
| --- | --- | --- | --- | --- | --- |
| B1 | 4.69 | 0.455 | < 0.097 |  |  |
| B2 | 0.517 | 0.159 | < 0.053 | 0.198 | 0.109 |
| B3 |  | 0.277 | 0.101 |  |  |
| B4 |  | 1.7 | 0.106 |  |  |
| B5 |  | 1.84 | 0.244 |  | 9.16 |
| B6 |  | 0.15 |  |  | 0.195 |
| B7 |  | 5.88 |  |  |  |
| B8 |  | 8.5 | 0.104 | 0.92 |  |
| B9 |  | 7.41 | 3.37 |  |  |
| B10 |  |  | 0.105 | 0.523 |  |
| B11 |  | 0.567 |  |  | 1.47 |
